Measurements: US8697661B2, “Use of spinosyns and spinosyn compositions against herpesviridae viral infections” (priority 2009, dated 2014)

System: NCI-H460, a large cell lung carcinoma cell line
Experiment: Cellular bioenergetics, Seahorse XF-24 OCR and ECAR
Details: H460 cells

Spinosad
oxygen consumption decreased by, compared to the control (20 μg/mL spinosad in DMSO, 3 hours): 50% | ECAR (Extra Cellular Acidification Rate) (7.6 hours after treatment with spinosad): relatively unaffected
